This sample is rich in variants without activity.
B1: TPR 5TU (parent)
chain: GGAUCUUCUCGAUCUAACAAAAAAGACAAAUCUGCCACAAAGCUUGAGAGCAUCUUCGGAUGCAGAGGCGGCAGCCUUCGGUGGCGCGAUAGCGCCAACGUUCUCAACUAUGACACGCAAAACGCGUGCUCCGUUGAAUGGAGUUUAUCAUG

Variants of: B1
Test: polymerase ribozyme fitness, log enrichment relative to wild type (log ratio); higher = more active; in vitro selection for triplet polymerase activity
Procedure, shortened: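 To select mutant libraries of each subunit of a heterodimeric triplet polymerase ribozyme, built by PCR and transcribed, each was annealed with a biotinylated primer, partner subunit and triplets, then incubated frozen at −7 °C. Extended constructs were gel-excised, captured on streptavidin beads and amplified by RT-PCR, in one round carried out in triplicate. Illumina sequencing of input and output libraries kept genotypes with ≥10 input reads and ≥1 read per output. Fitness is the base-2 logarithm of genotype enrichment relative to wild-type enrichment, from inverse-variance-weighted replicate averages.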

Row | Variant | polymerase ribozyme fitness (log ratio)
1 | C27U A52G C76G C85U G88C | ≤ -4.2
2 | A26U C51A A52C U90G U139G U148G | ≤ -4.2
3 | C27G A37C A47C C87G A115C | ≤ -4.2
4 | A26U G71U | ≤ -4.2
5 | C27A C35U A49C A66U G140C A150G | ≤ -4.2
6 | C27U A29G G48A G68A G94A C118A U134C | ≤ -4.2
7 | C27G C43U C75G U78G C129G G143A | ≤ -4.2
8 | A26U G50A U61C A73U U82G C95G | ≤ -4.2
9 | C27G A106U | -3.92
10 | C27G C32G A37U C72A G80A G83A G86U C105U G117C | ≤ -4.2
11 | C27U A47C G83A C149G | ≤ -4.2
12 | C27U A37C G59U U61A C63U A64C G92U | ≤ -4.2
13 | A26U C43A A52U U78G C123U | ≤ -4.2
14 | C27A A39U U61A G80U A91U G94A C103G A150G | ≤ -4.2
15 | A26U U148A | -4.11
16 | C27U C76A | -2.31
17 | C27A A39G U53C C95A A121U G136C | ≤ -4.2
18 | C27G | -3.12
19 | C27A | -2.95
20 | C27U C57A C95U | -2.1
21 | C27A A49U C87A U134C G141A | ≤ -4.2

Row | Variant | polymerase ribozyme fitness (log ratio)
22 | C27U A41G A47C U53A U78C C93A A110U | ≤ -4.2
23 | A26U G59U U90G U135G G143A U144G | ≤ -4.2
24 | C27G G84A G92C | ≤ -4.2
25 | C27G G58C G71U C105U | ≤ -4.2
26 | A26U G46U G58A A73U C85G U111G A150U | ≤ -4.2
27 | C27U C54G C63A C85A C118U | ≤ -4.2
28 | C27G A49C C54U U78C U146A | ≤ -4.2
29 | C27G A30U A91C A107C C129G U139G G141U A142C | ≤ -4.2
30 | C27G A28C A41U A91G C93U | ≤ -4.2
31 | C27G A47C A64G U111G | ≤ -4.2
32 | C27U C75A G81A G92A U135A | ≤ -4.2
33 | C27G A47G A98G | ≤ -4.2
34 | C27U C35U G74C C79U G81C C85A A122U | ≤ -4.2
35 | C27G C96U A106G | -4
36 | C27U C32U U53A G74C G83U C95G | ≤ -4.2
37 | C27G G58A C93A C95G | ≤ -4.2
38 | C27A C76A G83A G88A | ≤ -4.2
39 | C27U C85A | -2.04
40 | A26U C85A A97U | ≤ -4.2
41 | A26U C57A A60G A64U G84U | ≤ -4.2
42 | C27A A52U C87A A119C C149U | ≤ -4.2

Row | Variant | polymerase ribozyme fitness (log ratio)
43 | C27U C36G C43A C57A U78G A98U A120G G133U | ≤ -4.2
44 | A26U G46U G48U G81U G83C C99G | ≤ -4.2
45 | C27G A52G G92A | ≤ -4.2
46 | C27A U31G C63G C95U C103A U144A | ≤ -4.2
47 | C27U C43U G46C A120G | ≤ -4.2
48 | A26U U33C A47C A106G | ≤ -4.2
49 | C27G G92C C105A C125G | ≤ -4.2
50 | C27A G67C C96U C123A G141C | ≤ -4.2
51 | A26U C54A G71A A122C U139A | ≤ -4.2
52 | C27G G50C C75U G83C C96G | ≤ -4.2
53 | C27A U31C A47U C85U U134G | ≤ -4.2
54 | C27G U77C G84A C85A G92A U104G | ≤ -4.2
55 | C27A C69U G70C G92A C95U C103G U104G | ≤ -4.2
56 | A26U U78A C96A C116U U146C | ≤ -4.2
57 | C27A U33C C85A A106G U144A U151C | ≤ -4.2
58 | C27G A91G | ≤ -4.2
59 | A26U C85U C105U A142C | -3.69
60 | C27G C76U G81A U146G | ≤ -4.2
61 | C27G G34U C96G A110G C116U C118G A138G | ≤ -4.2
62 | C27A G58C | ≤ -4.2
63 | C27G C93G | ≤ -4.2

Row | Variant | polymerase ribozyme fitness (log ratio)
64 | C27G G83A A89C | -3.98
65 | C27A G58C U111C | ≤ -4.2
66 | C27G C36A A49U G83U U111C | ≤ -4.2
67 | C27A A28U C38U A39U A47U | ≤ -4.2
68 | C27U C75U C93G | ≤ -4.2
69 | C27A U45A G58C C95U A115C C149G G152A | ≤ -4.2
70 | A26U U33G C38U C76U U78G G84C G86A A107G U127C | ≤ -4.2
71 | A26U C54U C95U | -1.76
72 | C27A G59A C95A U135C | ≤ -4.2
73 | C27U A28G C116U U148A | ≤ -4.2
74 | C27A C57U G68U G92A C93U C95G | ≤ -4.2
75 | C27G U31G C63A A89G U145C | ≤ -4.2
76 | A26U G83C C125A U145C | ≤ -4.2
77 | C27A C35A G84U C103G | ≤ -4.2
78 | C27G C43G C79U C87A | ≤ -4.2
79 | C27G C76A C85U A91G C105G U135C | ≤ -4.2
80 | A26U G68C G86U C103G A115C | ≤ -4.2
81 | C27G C93U U145G | ≤ -4.2
82 | A26U G34C G83U C95G U145A A147U | ≤ -4.2
83 | C27A U82G C87G G94A U135A | ≤ -4.2
84 | C27A C63A G80C C85G A119C U144A | ≤ -4.2

Source: the RNAGym collection of RNA variant scans (doi:10.1073/pnas.2313332121)
